About 230 (0.21%) of roughly 110,000 compounds showed an effect of 50% or more. This is one part of the list.
Biological target: DPAP1 (Plasmodium falciparum, UniProt Q8IIJ9)
Assay: primary screen, percent inhibition; read by cleavage of a fluorogenic dipeptide substrate; higher = more effect of the substance
Design: species or system P. falciparum D10 trophozoite lysates; single well
Description: HTS was performed in black 384-well plates. The first and last two columns of each plate contained our negative (DMSO) and positive (10 μM JCP410) controls, and the 20 central columns the test compounds at 10 μM. Compounds were first diluted 50-fold into assay buffer (50 mM sodium acetate, 5 mM MgCl2, 10 mM β-mercaptoethanol, and 0.1% CHAPS, pH 5.5) from a 10 mM DMSO stock plates. One microliter of this 200 μM intermediate stock plate was dispensed into the assay plate. […] After 30 min, the reaction was quenched with 20 μL of 0.5 M acetic acid, and the fluorescent intensity measured at 523 nm (λex = 492 nm) using an Analyst HT multimode plate reader (Molecular Devices).
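Further: 30 min substrate incubation versus DMSO and 10 µM JCP410 controls.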

Sequence of DPAP1 (Q8IIJ9 whole entry, looked up): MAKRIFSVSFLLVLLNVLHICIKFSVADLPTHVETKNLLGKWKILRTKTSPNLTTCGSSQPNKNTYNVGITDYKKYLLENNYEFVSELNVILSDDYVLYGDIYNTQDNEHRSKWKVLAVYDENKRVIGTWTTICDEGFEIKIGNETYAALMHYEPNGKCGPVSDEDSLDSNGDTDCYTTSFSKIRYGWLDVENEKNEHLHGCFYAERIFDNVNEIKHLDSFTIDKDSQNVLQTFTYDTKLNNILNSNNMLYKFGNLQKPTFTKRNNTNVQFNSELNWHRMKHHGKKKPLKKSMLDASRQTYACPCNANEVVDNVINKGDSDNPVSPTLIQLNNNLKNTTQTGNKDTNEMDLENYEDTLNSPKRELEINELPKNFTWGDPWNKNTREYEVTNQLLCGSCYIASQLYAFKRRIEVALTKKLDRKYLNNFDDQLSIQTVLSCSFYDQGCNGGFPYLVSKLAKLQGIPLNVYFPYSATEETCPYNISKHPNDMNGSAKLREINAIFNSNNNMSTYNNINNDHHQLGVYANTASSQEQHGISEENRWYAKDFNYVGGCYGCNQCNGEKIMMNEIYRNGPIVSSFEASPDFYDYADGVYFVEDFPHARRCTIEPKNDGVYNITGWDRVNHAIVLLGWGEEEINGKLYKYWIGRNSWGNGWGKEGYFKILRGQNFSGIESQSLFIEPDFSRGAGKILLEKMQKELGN

SMILES | % Inhibition @ 10 uM [%]
O=C(Nc1ccc2c(c1)OCCO2)NC1CCCCC1 | 4.83
Cc1ccc(C)c(Cn2c(C(=O)O)c(CNCCc3c[nH]c4ccccc34)c3ccccc32)c1 | 0.277
N#Cc1c(NC(=O)c2ccco2)sc2c1CCC2 | 4.6
O=C(c1ccc(Cl)cc1)N1CCN(CCO)CC1 | 3.48
O=C(c1ccc(F)cc1F)N1CCN(c2cc(N3CCOCC3)c(F)cc2[N+](=O)[O-])CC1 | -1.32
C=CCn1cc(C=C2C(=O)OC(c3ccccc3)OC2=O)c2ccccc21 (centres unmarked) | -1.92
O=C(O)c1cccc(NC(=O)c2ccc(C(=O)Nc3cccc(C(=O)O)c3)cc2)c1 | 9.19
CCCCN(C(=O)c1cc(OC)c(OC)c(OC)c1)C1CC2CCC(C1)N2C (centres unmarked) | 5.4
O=C(N[C@@H](CC1CCCCC1)C(=O)NC(CNc1ccccc1)CNc1ccccc1)c1ccccc1 | -5.21
CCO/C(O)=C1/C(C)=Nc2ncnn2C1c1ccc(SC)cc1 (centres unmarked) | -1.62
Cc1cc2nc3[nH]c4ccccc4c3nc2cc1C | -2.36
COc1ccc(N2C(=O)CC(N3CCC(Cc4ccccc4)CC3)C2=O)cc1 (centres unmarked) | 1.35
COc1ccc(OC)c(C2CCN(S(=O)(=O)c3ccc(-c4cc(C(F)(F)F)no4)s3)C2)c1 (centres unmarked) | -3.26
C[C@@H](C[C@H](NC(=O)c1ccc(-c2ccccc2Cl)[n+]([O-])c1)C(=O)NCC#N)c1ccccc1 | -6.56
Cc1ccc(NC(=O)COc2cc(C)ccc2C(C)C)c(Br)c1 | -0.351
Brc1ccc(C2=CC(c3cccs3)n3ncnc3N2)cc1 (centres unmarked) | 1.12
COc1ccccc1-c1c(C)nn2c(N(C)CCC#N)cc(C)nc12 | -1.46
CS(=O)(=O)N(CC(=O)Nc1ccc(OCc2ccccc2)cc1)c1cccc(F)c1 | -7.34
Cc1[nH]c(-c2ccc(F)cc2)cc1C(=O)N1CCN(c2ccccn2)CC1 | 5.8
CCCCCCOC(=O)c1[nH]c2c(c1C)C(=O)CC(c1ccco1)C2 (centres unmarked) | -3.87
N=C1/C(=C/c2ccc(O)cc2)C(=O)N=C2SC(c3ccccc3Cl)=NN12 | -3.4
CC(=O)Nc1ccc(C(=O)Nc2ccc(S(=O)(=O)N3CCC(C)CC3)cc2)cc1 | 2.22

SMILES | % Inhibition @ 10 uM [%]
O=C(NCc1cccs1)C1CCC(CNS(=O)(=O)c2ccc(Br)s2)CC1 (centres unmarked) | 1.16
CC(C)(C)NS(=O)(=O)C1CCS(=O)(=O)C1 (centres unmarked) | 0.215
CCC(CC)C(=O)Nc1noc2ccccc12 | 2.19
COc1ccc(CN2CCN(c3ccccn3)CC2)cc1C | 1.48
COc1cccc(Nc2nc(-c3ccc(Br)cc3)cs2)c1 | -2
CCc1nnc(S)c2cc3sccc3n12 | 4.83
O=C1CC(C(=O)Nc2nncs2)C(c2ccccc2)O1 (centres unmarked) | 2.1
CC1(C)CC(=O)c2c(-c3cccs3)n[nH]c2C1 | -3.63
CCN(CC)C(=O)C1CCCN(Cc2ccc(OC)c(OC)c2)C1 (centres unmarked) | -1.98
CCN(CC)c1ccc(NC(=O)C(C)Oc2ccccc2)cc1 (centres unmarked) | 0.843
CC(C)(C)NCCCCOc1ccc(F)cc1 | -1.54
C=CCN1Cc2ccc(C(=O)O)cc2C1 | -5
CCOC(=O)C1=C(CN2CCN(C(=O)OCC)CC2)NC(=O)NC1c1ccc(F)cc1 (centres unmarked) | -4.69
N#CCNC(=O)[C@H](CC1CCCCC1)NC(=O)c1sc2ccccc2c1Cl | 2.86
Clc1ccccc1OCCCCn1ccnc1 | 4.9
CC(C)c1ccc(/C=C2\C(=N)N3N=C(N4CCCC4)SC3=NC2=O)cc1 | 0.0579
CCC(C(=O)N1CC(C)CC(C)C1)n1c(C(=O)OC)cc2occc21 (centres unmarked) | -6.24
O=[N+]([O-])c1ccc(N2CCN(S(=O)(=O)c3ccc(Cl)cc3)CC2)c(Cl)c1 | 4.7
CC1(C)CC2=Nc3ccccc3NC(c3ccccc3F)C2=C(O)C1 (centres unmarked) | -5.48
CC(=O)c1cccc(NC(=O)COc2ccccc2Cl)c1 | 2.79
Cc1ccc(-c2cc(-c3ccccc3)nc(O)n2)cc1 | 4.03
COc1ccc2[nH]c3c(=O)n(CCCCC(=O)N4CCN(c5ncccn5)CC4)c(=S)[nH]c3c2c1 | -5.76

SMILES | % Inhibition @ 10 uM [%]
CC(C)(C)c1ccc(CN(C(=O)c2cc(=O)c3ccccc3o2)C2CCS(=O)(=O)C2)cc1 (centres unmarked) | -1.47
Oc1nc2ccccc2n2cccc12 | -7.57
CC(C)N(C(=O)Cn1c(=O)oc2ccccc21)c1ccccc1 | 0.658
Cc1cc(C)nc(NC(=O)c2cc(-c3ccccc3)nc3ccccc23)n1 | -5.28
CCC(C(=O)Nc1ccc(NC(C)=O)cc1)c1ccccc1 (centres unmarked) | -1.24
CCN1CCCC1CNC(=O)C1CCN(c2nnc(-n3cccc3)s2)CC1 (centres unmarked) | -0.522
COc1ccc(NCc2ccc(C(F)(F)F)cc2)cc1 | -4.03
Cc1nc2ncnn2c(O)c1Cc1ccccc1 | 1
Cc1cccc(OCCCn2c(CCCO)nc3ccccc32)c1 | 2.92
CC(C)(C)c1ccc2c(c1)C(=O)NC2=O | -7.99
Fc1ccc(N2N=C(/C=C/c3ccc(Cl)cc3)CC2c2ccc(Cl)cc2)cc1 (centres unmarked) | -7.02
COc1ccc(-c2noc(-c3nnn(-c4ccccc4C(F)(F)F)c3N)n2)cc1 | 6.44
Cc1ccccc1C(=O)Nc1ccc(S(=O)(=O)N2CCOCC2)cc1 | 0.408
Cc1c(CN(C)C)c2c(n1C)C(=O)c1ccc(Br)cc1-2 | 3.74
COc1ccc(C(=O)Nc2ccc(S(=O)(=O)N3CCOCC3)cc2)cc1 | 3.13
O=C(NCc1ccc2c(c1)OCO2)[C@H](Cc1ccccc1)N1Cc2ccccc2C1=O | -2.25
COC(=O)c1sc2cc(OC)ccc2c1Cl | 5.03
Cn1c(=O)c2c(nc(CN3CCOCC3)n2Cc2ccccc2Cl)n(C)c1=O | 1.23
C=CCN(Cc1nc(-c2ccc(Cl)cc2)no1)S(=O)(=O)c1ccc(C)cc1 | 2.41
Cc1nc2cc(Br)ccc2[nH]1 | -3.88
O=C(Cn1ncc2ccccc21)NCCCc1ccccc1 | 4.84

From PMC6919601, “Identification of Plasmodium dipeptidyl aminopeptidase allosteric inhibitors by high throughput screening” (PLoS ONE, 2019)
